Experimental findings from PMC7861413 are described below.

Sequences of proteins named here, by UniProt entry; tags and fusion partners are left off. Residues count along the entry.
UniProt P07237, residues 18-508: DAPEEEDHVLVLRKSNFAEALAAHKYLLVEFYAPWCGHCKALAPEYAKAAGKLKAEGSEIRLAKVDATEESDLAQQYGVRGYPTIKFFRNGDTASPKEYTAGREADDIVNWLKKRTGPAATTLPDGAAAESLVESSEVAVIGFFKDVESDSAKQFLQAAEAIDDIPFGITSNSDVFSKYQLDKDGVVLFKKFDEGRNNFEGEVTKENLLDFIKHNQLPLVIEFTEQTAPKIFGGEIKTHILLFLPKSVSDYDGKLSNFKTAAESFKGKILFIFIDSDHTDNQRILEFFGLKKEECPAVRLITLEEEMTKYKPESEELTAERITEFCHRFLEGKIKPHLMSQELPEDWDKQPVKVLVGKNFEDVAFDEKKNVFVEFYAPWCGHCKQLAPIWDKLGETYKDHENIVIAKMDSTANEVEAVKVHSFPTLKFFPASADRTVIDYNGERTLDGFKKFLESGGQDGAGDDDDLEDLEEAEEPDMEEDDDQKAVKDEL

No constants are given. Whether binding was seen depends on the method and setting. Binding seen in cells or lysates may run through a third protein. Some entries that bind do so weakly or less than the wild type.

Assay [1] has as its target T1, endoplasmic reticulum oxidoreductin-1 (Ero-1) (human (endogenous in Hep3B)) (UniProt Q96HE7).
T1 sequence: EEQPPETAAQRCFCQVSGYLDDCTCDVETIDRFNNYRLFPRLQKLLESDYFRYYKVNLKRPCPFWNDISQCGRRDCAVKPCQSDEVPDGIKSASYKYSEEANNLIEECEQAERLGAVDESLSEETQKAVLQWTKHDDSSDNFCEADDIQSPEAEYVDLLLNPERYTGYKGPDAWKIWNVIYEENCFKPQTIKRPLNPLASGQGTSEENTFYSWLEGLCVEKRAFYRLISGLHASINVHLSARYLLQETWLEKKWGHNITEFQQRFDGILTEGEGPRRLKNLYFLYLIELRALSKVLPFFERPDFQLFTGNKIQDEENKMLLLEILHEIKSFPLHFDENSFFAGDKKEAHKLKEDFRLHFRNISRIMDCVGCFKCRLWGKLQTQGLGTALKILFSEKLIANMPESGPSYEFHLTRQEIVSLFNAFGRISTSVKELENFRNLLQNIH
Nature of the assay: co-IP; Hep3B cell extracts, hypoxia 6 h; Ero-1 immunoprecipitated (by the text), immunoblot for HIF-1alpha, PDI and Ero-1.

Assay [2] has as its target Hypoxia-inducible factor-1alpha (HIF-1alpha) (human (endogenous in Hep3B)) (UniProt Q16665). Description: co-IP; Hep3B cell extracts (hypoxia 6 h; or hypoxia 8 h with NH4Cl, with or without overexpression of PDI WT or PDI C53, 397S); anti-HIF-1alpha antibody, Protein A-Sepharose, 4°C; 50 mM Tris-HCl pH 7.5, 150 mM NaCl, 0.5% Nonidet P-40; immunoblot. Background: A western blot detects proteins with antibodies after separation by electrophoresis.

Assay [3] shares this target. Description: co-IP; cytosol fraction of Hep3B cells, hypoxia 4 h or 6 h; anti-HIF-1alpha antibody; immunoblot for PDI.
Assay [4] concerns the target HIF-1alpha (1–245 aa), Myc-tagged (human) (UniProt Q16665). Nature of the assay: co-IP; extracts of Hep3B cells overexpressing HIF-1alpha 1–245 aa with or without PDI, 8 h with NH4Cl; anti-Myc antibody; immunoblot with anti-Myc or anti-HSC70 antibody.

For “Hypoxia-inducible factor-1alpha (HIF-1alpha) (from UniProt Q16665-1 1-826)”, in assay [1], the binding result was “no binding”.
Consider “Protein disulfide isomerase (PDI) (from UniProt P07237 18-508) (enzyme)”, for which the binding entry in assay [2], in assay [1] and in assay [3] was “binds” each time.
Take “heat shock cognate 70 kDa protein (HSC70) (from UniProt P11142 1-646)”: the binding result in assay [2] and in assay [4] was “binds” in each case.
